PubChem BioAssay AID624418 (National Center for Advancing Translational Sciences (NCATS), 2012)
Screen size: about 410,000 compounds; about 530 (0.13%) were called active. Inconclusive means that the source gave no clear call. Such entries were picked first, then a sample of the others. Calls come from the whole dose curve; as a rule, active = well fitted inhibition curve with a large enough effect; inconclusive = small, poorly fitted or top-dose-only effect, or another doubt; inactive = no such curve, though single readings can be large or run the other way. Potencies beside an inconclusive call are fits to weak or partial responses and may not hold up.

experiment: qHTS of GLP-1 Receptor Inverse Agonists: Cytotox Screen; details: HEK293 cAMP-luciferase reporter cells, luminescence, 24 h; activity change, negative = inhibition: at 38.3 µM (top of the series) unless noted
In short: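 MLSMR compounds, 24 hr on cells at 37 deg C/5% CO2; luminescence after luciferase reagent (12 min RT). Inhibition counted as the undesired cytotoxic outcome.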
% is set by controls: 0 for no effect and ±100 for the full control effect; potency is the fitted concentration of half-maximal effect.

Row | SMILES | Potency | activity change, negative = inhibition
1 | Cc1cc2[nH]c3c(c[n+](C)c4ccccc34)c2cc1C | inconclusive: 10 µM [inhibitor, single point] | 
2 | COc1ccc(CNS(=O)(=O)c2cc3c(cc2C)N(C)CCO3)cc1 | inactive | 
3 | CN(C)CCCN1c2ccccc2Sc2ccc(C(F)(F)F)cc21 | inconclusive: 31.6 µM [inhibitor, single point] | 
4 | OC1CCC(Nc2ncnc3sccc23)CC1 (stereo unspecified) | inconclusive: 12.6 µM [inhibitor, single point] | 
5 | Cc1nc(-c2cccc(NC(=O)c3ccco3)c2)cs1 |  | inactive: -6.08%
6 | COc1ccc(C)cc1S(=O)(=O)NCC(c1cccs1)S(=O)(=O)c1ccc(C)cc1 (stereo unspecified) |  | inactive: -0.0437%
7 | Cc1ccc(-c2csc3ncnc(NCCN4CCOCC4)c23)cc1 |  | inactive: 65.4%
8 | Cc1cccc(N2CCN(S(=O)(=O)c3cnc[nH]3)CC2)c1C | inconclusive: 2.24 µM [inhibitor, full curve] | 
9 | CCN(CC)CCNC(=O)c1cc(-c2ccc(Br)s2)nc2ccccc12 | inconclusive: 28.2 µM [inhibitor, single point] | 
10 | CCN1CCCC1CN(Cc1cc2ccc(C)cc2[nH]c1=O)C(=S)Nc1ccc(OC)cc1OC (stereo unspecified) | inconclusive: 28.2 µM [inhibitor, single point] | 
11 | COc1ccc2nc(NC(=O)c3nc(S(=O)(=O)Cc4ccccc4)ncc3Cl)sc2c1 | inconclusive: 28.2 µM [inhibitor, single point] | 
12 | Cc1ccc(Nc2nc(N)c([N+](=O)[O-])c(NCc3ccco3)n2)cc1C | inconclusive: 28.2 µM [inhibitor, single point] | 
13 | Cc1ccc(N2C(=O)NC(NS(=O)(=O)c3ccc(Cl)cc3)(C(F)(F)F)C2=O)cc1C (stereo unspecified) |  | inactive: 0.813%
14 | N#CCCN(C(=O)CCl)c1cccc(Cl)c1 |  | inactive: -12.9%
15 | CCOc1ccc2c(c1)N(C(=O)CN1C(=O)CCC1=O)C(C)(C)C=C2C |  | inactive: -14.8%
16 | COc1cc(C(=O)NCc2ccc(-c3nc4ccccc4s3)cc2)cc(OC)c1OC | inconclusive: 11.2 µM [inhibitor, single point] | 
17 | O=C(OC(c1ccccc1)c1nccc2ccccc12)c1cccc([N+](=O)[O-])c1 (stereo unspecified) | inconclusive: 0.447 µM [inhibitor, full curve, poor fit] | 
18 | COc1cccc(-c2ccc(NC(=O)C3CCCN(Cc4cnc(C)n4C)C3)cc2)c1 (stereo unspecified) | inconclusive: 28.2 µM [inhibitor, single point] | 
19 | CSc1ccc(CCNC(=O)Cn2ncc3c(=O)oc4ccccc4c32)cc1 |  | inactive: 7.2%
20 | COc1ccc(-n2nc(C(=O)NCC(=O)NCCCN3CCC(C)CC3)c3ccccc3c2=O)cc1Cl | inconclusive: 22.4 µM [inhibitor, single point] | 
21 | C=CCn1c(=S)[nH]c2cc(-c3ccccc3)sc2c1=O | inconclusive: 5.01 µM [inhibitor, full curve] | 
22 | Nc1cc(S(=O)(=O)N2CCCCC2)ccc1Oc1ccc(Cl)cc1 |  | inactive: -0.425%
23 | Cc1ccc(NC(=S)Nc2cccc3ccccc23)cc1 | inconclusive: 28.2 µM [inhibitor, single point] | 

Row | SMILES | Potency | activity change, negative = inhibition
24 | OC(COC(c1ccc(Cl)cc1)c1ccc(Cl)cc1)CN1CCN(c2ccccn2)CC1 (stereo unspecified) | inconclusive: 12.6 µM [inhibitor, single point] | 
25 | Cc1ccc2c(=O)cc(C(=O)Nc3ccc(S(=O)(=O)Nc4nc(C)cc(C)n4)cc3)oc2c1 |  | inactive: -7.59%
26 | Cc1cc(C)c2[nH]c(=O)c(C(c3nnnn3CC3CCCO3)N3CCCC(C)C3)cc2c1 (stereo unspecified) |  | inactive: -13.2%
27 | CCc1cc2c(=O)n(-c3ccccc3)cnc2s1 |  | inactive: 0.0361%
28 | Cc1[nH]c2ccccc2c1/C=N/Nc1ccc([N+](=O)[O-])cc1 | inconclusive: 22.4 µM [inhibitor, single point] | 
29 | c1ccc(COc2ncnc3c2ncn3CCCNCC(c2ccccc2)c2ccccc2)cc1 | active: 11.2 µM | 
30 | COc1ccc(/C=C2\CN(Cc3ccccc3)C/C(=C\c3ccc(OC)cc3OC)C2=O)c(OC)c1 | inconclusive: 10 µM [inhibitor, single point] | 
31 | O=C(C1CCN(c2ncnc3c2nc2n3CCCCC2)CC1)N1CCN(c2ccc(F)cc2)CC1 | inactive | 
32 | Cc1ccc(S(=O)(=O)N(C)Cc2cc3cc(C)ccc3[nH]c2=O)cc1 |  | inactive: -21.5%
33 | COc1cc(NC(=O)CCNC(=O)Cn2cnc3sc4c(c3c2=O)CCCC4)cc(OC)c1OC | inconclusive: 14.1 µM [inhibitor, single point] | 
34 | CC(=O)C1N=NCC1c1ccccc1 (stereo unspecified) |  | inactive: 0%
35 | CCCC(=O)NC(=S)Nc1nc(-c2ccc(OC)cc2)cs1 | inconclusive: 28.2 µM [inhibitor, single point] | 
36 | CC/C(=N\Nc1ccccc1[N+](=O)[O-])c1ccc(O)cc1 | inconclusive: 15.8 µM [inhibitor, partial curve, poor fit] | 
37 | Cc1cc(-c2n[nH]c(=S)n2-c2ccccc2C)cs1 | inconclusive: 28.2 µM [inhibitor, single point] | 
38 | NCCNc1cc(N2CCCC2)ccc1[N+](=O)[O-] | inconclusive: 8.91 µM [inhibitor, partial curve] | 
39 | CN(c1ccc(-c2csc(NC(=O)CCCc3nc4ccccc4c(=O)[nH]3)n2)cc1)S(C)(=O)=O | inconclusive: 28.2 µM [inhibitor, single point] | 
40 | Cc1ccc(NC(=O)c2ccc3snnc3c2)cc1Cl |  | inactive: -5.08%
41 | CCc1ccc(S(=O)(=O)c2nnn(-c3ccc(F)cc3)c2N)cc1 |  | inactive: -20.8%
42 | OC(COc1ccc2c(c1)OCO2)CN1CCCCC1 (stereo unspecified) |  | inactive: -10.9%
43 | CCOC(=O)c1ccc(N2CCN(c3ccc(F)cc3)CC2)c(NC(=O)Nc2cccc(OC)c2)c1 | inactive | 
44 | O=C1C2CC=CCC2C(=O)N1c1ccc(NCCc2ccc(O)cc2)c([N+](=O)[O-])c1 (stereo unspecified) | inconclusive: 28.2 µM [inhibitor, single point] | 
45 | CCOc1cc(-c2nnc(SCC(=O)NCc3ccccc3)nc2-c2ccc(OC)c(OCC)c2)ccc1OC | inconclusive: 3.98 µM [inhibitor, full curve, poor fit] | 
46 | CCc1ccc(NC(=O)C2CCCN(S(=O)(=O)c3ccc4c(c3)CCCN4C(C)=O)C2)cc1 (stereo unspecified) | inconclusive: 28.2 µM [inhibitor, single point] | 
